According to PubChem BioAssay AID485367 (National Center for Advancing Translational Sciences (NCATS), 2010):
The campaign covered roughly 330,000 compounds. About 560 (0.17%) were called active. Inconclusive means that the source gave no clear call. Such entries were picked first, then a sample of the others. Calls follow the shape of the dose curve; as a rule, active = well fitted inhibition curve with a large enough effect; inconclusive = small, poorly fitted or top-dose-only effect, or effect the other way; inactive = flat fitted curve, though single readings scatter. No potency is given beside an inconclusive call; the fits are too rough.
Also: nearly all actives have a fitted effect of over 60% in size.
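For activity, negative = inhibition in this document: 0% = uninhibited 1x PFK enzyme wells and -100% = no-enzyme wells.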
Potency is read from the fitted curve at half-maximal effect; tags tell the direction and shape of the fitted curve.

These molecules were tested against ATP-dependent 6-phosphofructokinase (Trypanosoma brucei brucei) (UniProt O15648) (assay: qHTS Assay to Find Inhibitors of T. brucei phosphofructokinase). Conditions: T. brucei PFK, ADP-Glo luminescence; activity, negative = inhibition: at 57.5 µM (top of the series).
Chain of UniProt O15648 (O15648 whole entry, looked up): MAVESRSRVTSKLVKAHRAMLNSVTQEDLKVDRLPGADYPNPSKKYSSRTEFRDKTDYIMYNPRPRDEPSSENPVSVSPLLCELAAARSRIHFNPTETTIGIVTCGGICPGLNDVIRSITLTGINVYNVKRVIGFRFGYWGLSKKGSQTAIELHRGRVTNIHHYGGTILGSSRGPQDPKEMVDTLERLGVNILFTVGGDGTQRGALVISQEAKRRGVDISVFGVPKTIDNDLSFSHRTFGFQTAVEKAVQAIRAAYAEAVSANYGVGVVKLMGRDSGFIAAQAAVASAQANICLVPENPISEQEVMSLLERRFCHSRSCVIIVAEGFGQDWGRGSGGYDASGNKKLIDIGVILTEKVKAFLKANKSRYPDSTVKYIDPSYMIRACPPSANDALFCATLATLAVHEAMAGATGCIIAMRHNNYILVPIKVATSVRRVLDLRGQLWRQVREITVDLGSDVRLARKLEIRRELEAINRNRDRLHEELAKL
Procedure, shortened: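 PFK 1.25 nM, F6P 0.5 mM, ATP 0.1 mM, 0.1 M TEA pH 8.0, 5 mM MgCl2, 0.01% Tween20, 0.1% BSA; 45 min RT. ADP-Glo readout. qHTS titration up to 57 uM; curves fitted, compounds curve-classed.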
In the case of `O=C(Cc1ccc(Br)cc1)Nc1cccc(S(=O)(=O)N2CCOCC2)c1`, the Potency is reported as inconclusive [falling, partial curve]. `O=C(NCCCN1CCOCC1)c1ccc(CSc2ccc(Cl)cc2)cc1` was tested, and the Potency was inconclusive [falling, single point]. With `O=C1CC(C(=O)N2CCN(c3ccccc3Cl)CC2)CN1Cc1ccccc1` (stereo not given) the “activity, negative = inhibition” value was inactive: 5.81%. For `O=C(/C=C/c1ccc([N+](=O)[O-])cc1)NCc1cccs1`, the Potency was inconclusive [falling, single point]. For `Cc1c([N+](=O)[O-])c(C(=O)Nc2ccc3c(c2)OCCO3)nn1C`, the Potency was inconclusive [falling, full curve, poor fit]. For `N#CC1(C#N)COC23CCCCC2C1(C#N)C(=N)O3` (stereo not given), the “activity, negative = inhibition” value was inactive: 1.4%. `COc1ccc(CC(=O)N2CCN(c3cccc(Cl)c3)CC2)cc1OC` was tested, and the Potency was inconclusive [falling, single point]. `O=S(=O)(Nc1nccs1)c1ccc(Nc2nnc(-c3ccccc3)c3ccccc23)cc1` was tested, and the Potency was inconclusive [falling, single point]. With `O=C1CC(N2CCN(c3ccc(Cl)c(Cl)c3)CC2)C(=O)N1` (stereo not given) the Potency was active: 6.01 µM. In the case of `CC(=O)NC1(C(F)(F)F)N=C2SCCN2C1=O` (stereo not given), the Potency is reported as inconclusive [activator, single point]. For `COc1ccc(CCN(C)C2CCCN(S(=O)(=O)c3ccccc3)C2)cc1OC` (stereo not given), the “activity, negative = inhibition” value was inactive: -9.72%. For `COc1ccc2c(c1)c(=O)oc1cc(OCC(=O)N3CCC(C)CC3)ccc12`, the Potency was inconclusive [falling, single point]. For `Cn1nccc1C(=O)OCC(=O)Nc1cccc(Cl)c1`, the Potency was inconclusive [falling, partial curve]. With `O=C(Cc1ccc([N+](=O)[O-])cc1)Nc1ccon1` the Potency was inconclusive [falling, single point]. With `COc1ccc2c(c1)c(=O)oc1cc3oc(C)c(C)c3cc12` the Potency was inconclusive [falling, single point]. `Cc1ccc(S(=O)(=O)NCCC(=O)NCCOc2ccccc2)cc1` was tested, and the Potency was inconclusive [activator, single point]. For `CC(=O)Nc1ccc(N=Cc2nc(-c3ccc(C)cc3)oc2O)cc1`, the Potency was inconclusive [falling, full curve]. With `NS(=O)(=O)c1ccc(CNC(=O)Cc2cccs2)cc1` the Potency was inconclusive [falling, single point]. In the case of `O=[N+]([O-])/C=C\c1ccc(N2CCCC2)c(F)c1`, the Potency is reported as inconclusive [falling, partial curve]. With `Cc1ccc(C)n1-c1cccc(C(=O)O)c1` the Potency was active: 10.7 µM. `NC(=O)c1ccc(NC(=O)COC(=O)c2ccc(Cl)nc2)cc1` was tested, and the Potency was inconclusive [falling, single point]. In the case of `Cc1ccc(NC(=O)c2cc3ccccc3cc2O)cc1`, the “activity, negative = inhibition” value is reported as inactive: -0.0546%. For `CC(C)CCN(C(=O)CCCSc1nc2ccccc2[nH]1)c1c(N)n(Cc2ccccc2)c(=O)[nH]c1=O`, the Potency was inconclusive [falling, single point]. With `CCOC(=O)CN1C(=O)N[C@@H](c2ccc(Br)cc2)C(C(C)=O)=C1C` the Potency was inconclusive [activator, single point]. For `Cc1cc(C)nc(SCC(=O)N/N=C/c2cccn2-c2cccc(C(F)(F)F)c2)n1`, the “activity, negative = inhibition” value was inactive: -2.96%. For `CS(=O)(=O)N1Cc2ccccc2CC1C(=O)OCC(=O)NCc1ccccc1` (stereo not given), the Potency was inconclusive [falling, single point]. In the case of `Oc1ccc(/C=N/NC(=S)N/N=C/c2ccc(O)cc2)cc1`, the Potency is reported as inconclusive [falling, single point]. In the case of `CC(CS(=O)(=O)c1ccc2c(c1)NC(=O)CS2)C(=O)N1CCN(c2cccc(Cl)c2)CC1` (stereo not given), the Potency is reported as active: 15.1 µM. For `Cc1c2ccccc2nc2c(F)c(NCCO)c(F)c(F)c12`, the “activity, negative = inhibition” value was inactive: 0%. In the case of `O=S(=O)(c1ccc(Cl)nc1)N1CCCc2ccccc21`, the Potency is reported as inconclusive [falling, single point]. With `O=C(N/N=C/c1cc2c3c(c1O)CCCN3CCC2)c1ccccc1O` the “activity, negative = inhibition” value was inactive: 27.1%. In the case of `CS(=O)(=O)N(Cc1ccc(Cl)cc1)c1ccc(C(=O)NCc2ccccn2)cc1`, the Potency is reported as inconclusive [falling, single point]. In the case of `O=C(c1ccco1)N1CCN(c2ncnc3c2nnn3Cc2ccccc2Cl)CC1`, the “activity, negative = inhibition” value is reported as inactive: -2.27%. For `O=C(NCCCN1CCCCCC1)c1ccc(CS(=O)(=O)Cc2ccccc2F)o1`, the Potency was inconclusive [activator, partial curve]. In the case of `Cc1nc([N+](=O)[O-])c(Br)n1Cc1ccc(Cl)c(Cl)c1`, the Potency is reported as active: 21.3 µM. With `Clc1ccc(CSC2=NCCCN2)cc1Cl` the Potency was active: 5.36 µM. For `Nc1c(C(=O)OCC(=O)Nc2cccc([N+](=O)[O-])c2)[nH]c(=O)[nH]c1=O`, the Potency was inconclusive [falling, full curve, poor fit]. For `COC(=O)CSc1nc(-c2ccccc2)cc(-c2ccco2)c1C#N`, the Potency was inconclusive [falling, single point]. For `CCN(CC)c1ccc(N=Cc2ccccc2[N+](=O)[O-])cc1`, the “activity, negative = inhibition” value was inactive: -4.18%. In the case of `COc1ccc(C)cc1NC(=O)c1ccc2c(SCC(=O)O)c3c(nc2c1)CCCC3`, the Potency is reported as inconclusive [activator, partial curve]. In the case of `Cc1cccc(C(=O)N[C@H](C(=O)OCc2cc(=O)n3c(n2)sc2ccccc23)C(C)C)c1`, the Potency is reported as inconclusive [falling, full curve, poor fit]. With `O=C(Nc1nc2ccccc2c(=O)s1)c1ccc(F)cc1Cl` the Potency was inconclusive [falling, full curve, poor fit]. In the case of `O=C(c1cccc(-n2cccc2)c1)N1CCN(S(=O)(=O)c2c(F)cccc2F)CC1`, the Potency is reported as inconclusive [falling, single point]. With `Cc1ccc(C)c(/C(O)=C2/C(=O)C(=O)N(CCN3CCOCC3)C2c2ccco2)c1` (stereo not given) the Potency was inconclusive [falling, single point]. `CCOc1cccc(N)c1` was tested, and the “activity, negative = inhibition” value was inactive: -0.0866%.
